# Laboratory results from PubChem BioAssay AID1508624 (National Center for Advancing Translational Sciences (NCATS), 2021).
# About 120 (0.25%) of roughly 48,000 compounds were called active. Another 4% or so got no clear call; they are omitted. Calls come from the whole dose curve; as a rule, active = well fitted activation curve with a large enough effect; inconclusive = small, poorly fitted or top-dose-only effect, or another doubt; inactive = no such curve, though single readings can be large or run the other way. The list shows a part of the results.
# Test: Primary qHTS for Identification of Small Molecule Activators of Huntingtin-Antisense Promoter Activity; note: nearly all actives have a fitted effect of over 55% in size
# Conditions: HEK293 HTT-AS promoter firefly luciferase reporter, 24 h; series mostly up to 57.5 µM; activity change, positive = activation: at the top concentration
# Outline: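 HEK293 cells carrying firefly luciferase reporters were seeded at 2,500 per well in Opti-MEM and cultured for 24 h. They were then treated with compounds at up to 57.5 uM final for 24 h at 37 degrees C before Dual-Glo luminescence readout.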
row,SMILES,"activity change, positive = activation"
1,CC(=O)c1ccc(N2CCN(C(=O)CCCCn3c(=O)[nH]c4ccccc4c3=O)CC2)cc1,inactive: -13%
2,Cc1ccc(NC(=O)CCC(=O)N2Cc3ccccc3Oc3ncccc32)cc1F,inactive: -16.8%
3,O=C(NCc1ccc(F)cc1)c1ccc2nc(N3CCCCC3)sc2c1,inactive: -65.3%
4,Cc1cccc(Cn2c(=O)n(CCC(=O)NCCc3ccc(Cl)cc3)c(=O)c3sccc32)c1,inactive: -11.1%
5,CCOc1ccc(NC(=O)c2ccc3c(c2)CCN3S(=O)(=O)c2ccc(Cl)cc2)cc1,inactive: -0.925%
6,Cc1cc(-c2ccc(C)c(S(=O)(=O)NCC3CCN(Cc4ccc(F)cc4)CC3)c2)on1,inactive: -18.8%
7,O=C(O)c1c(CNCc2cccc(F)c2)c2ccccc2n1Cc1ccccc1,inactive: -15.3%
8,O=C(NCC(c1ccc2c(c1)OCO2)N1CCOCC1)C(=O)Nc1cccc(Cl)c1 (configuration not stated),inactive: -30.7%
9,COc1ccc(OC)c(CNC(=O)c2nn(C)c3c2CSc2ccccc2-3)c1,inactive: -13.8%
10,Fc1cccc(Cl)c1Cn1c(-c2cccs2)nc2ccccc21,inactive: -33.5%
11,Cc1cccc(NC(=O)C(=O)NCC(c2cccnc2)N2CCc3ccccc3C2)c1C (configuration not stated),inactive: -17.2%
12,CCOc1ccc(NC(=O)c2ccc(F)c(S(=O)(=O)N(CC)Cc3ccccc3)c2)cc1,inactive: -39.8%
13,CCOC(=O)c1scc(-c2ccc(C)cc2)c1S(=O)(=O)N1CCN(c2ccccc2F)CC1,inactive: -14.9%
14,O=C(CCC1N=C2c3ccccc3N=C(SCc3cccc(F)c3)N2C1=O)NCc1cccs1 (configuration not stated),inactive: -22%
15,Cc1ccc(Cl)cc1N1CCN(C(=O)CCNS(=O)(=O)c2ccc3c(c2)CCN3C(=O)C2CC2)CC1,inactive: -38.1%
16,Cc1ccc(NC(=O)NCc2cccn2Cc2ccccc2)c(C)c1,inactive: -8.53%
17,CCCCCSc1ncnc2c1sc1nc(N3CCOCC3)c3c(c12)CCCC3,inactive: 1.77%
18,CCC(C)NC(=O)Cn1c(=O)n(-c2ccc(C)c(C)c2)c(=O)c2c3c(sc21)CCCCC3 (configuration not stated),inactive: -9.13%
19,COc1ccc(OC)c(NC(=O)c2cc(S(=O)(=O)NCCc3ccc(Cl)cc3)ccc2F)c1,inactive: -27%
20,CCOc1ccc(OCC)c(NC(=O)c2ccc(-c3ccccc3)s2)c1,inactive: -1.04%
21,Cc1nc2nc(SCC(=O)NC3CCC(C)CC3)nn2c(C)c1Cc1ccccc1 (configuration not stated),inactive: -0.126%
22,CCCCc1nn2c(=O)cc(COC(=O)C3CCCCC3)nc2s1,inactive: 8.04%
23,O=C(OOC(=O)c1ccccc1)c1ccccc1,inactive: -2.39%
24,COC(=O)c1ccc(-c2nc3cc(NC(C)=O)ccc3o2)cc1,inactive: 16.3%
25,CCOc1ccc(CCNC(=O)c2sc3ncccc3c2-n2cccc2)cc1OCC,inactive: -15%

row,SMILES,"activity change, positive = activation"
1,Nc1cc(=O)[nH]c(N)n1,inactive: -4.72%
2,Cc1ccc(N2CC(NC(=O)c3ccc(S(=O)(=O)N4CCCC4)cc3)CC2=O)cc1C (configuration not stated),inactive: -18.1%
3,Cc1cc(C)cc(-n2ccn(CC(=O)Nc3cc(C)ccc3C)c(=O)c2=O)c1,inactive: -2.64%
4,CCn1cc(C(=O)NCCCN2CCCC(C)C2)c(=O)c2cc(S(=O)(=O)N(C)C3CCCCC3)ccc21 (configuration not stated),inactive: -7.23%
5,Cc1cccc(CS(=O)(=O)Cc2ccc(C(=O)NCCc3ccccc3)o2)c1,inactive: -20.5%
6,COc1ccc(CCNc2nc(-c3ccc(OC)c(OC)c3)cc(C(F)(F)F)n2)cc1OC,inactive: -36.2%
7,CCOC(=O)c1c(S(=O)(=O)N2CCCC(C(=O)NCc3cccc(OC)c3)C2)c(C)n(C)c1C (configuration not stated),inactive: 5.93%
8,CCOc1ccc(N2CC(c3nc4ccccc4n3Cc3ccccc3F)CC2=O)cc1 (configuration not stated),inactive: 1.52%
9,COc1ccc(-c2nnc(SCC(=O)NC3CCCC3)nc2-c2ccc(OC)c(OC)c2)cc1OC,inactive: -14.8%
10,CN(C)CCCN=c1c2ccccc2n(C)c2[nH]c(=O)n(C)c(=O)c12,inactive: -31.4%
11,O=C(O)c1nc(=O)[nH]c(=O)[nH]1,"inactive: -19.1% [at 25.1 µM, percent change from vehicle, -100% = no light]"
12,COc1cccc(OC)c1C(=O)Nc1cccc(-c2cn3ccsc3n2)c1,inactive: 8.14%
13,O=C(NCc1ccccc1)C1CCN(S(=O)(=O)c2ccc3c(c2)CCCN3C(=O)C2CCC2)CC1,inactive: -22%
14,CCOc1ccc(C(=O)NCC(c2ccco2)S(=O)(=O)c2cccs2)cc1 (configuration not stated),inactive: 26%
15,Cc1ccccc1NC(=O)Cn1c(=O)n(Cc2ccccc2)c(=O)c2sc3ccccc3c21,inactive: -7.36%
16,CCN(Cc1ccccc1)C(=O)c1nn(-c2ccc(OC)cc2)c(=O)c2c1c1ccccc1n2C,inactive: -34.4%
17,Cc1ccccc1-c1nn2c(=O)cc(CN3CCN(S(=O)(=O)c4ccc(Cl)cc4)CC3)nc2s1,inactive: 1.4%
18,COC(=O)c1ccc(C(=O)OC)c(NC(=O)c2cnn3c(C(F)F)cc(-c4ccccc4)nc23)c1,inactive: 18.2%
19,COc1ccc(-n2c(=O)c3ccccc3n(Cc3cccc(C)c3)c2=O)cc1,inactive: -31.2%
20,CCCN(c1ccc(C(C)C)cc1)S(=O)(=O)c1ccc2c(c1)oc(=O)n2CC(=O)OCC,inactive: -34.4%
21,COc1cccc(Cn2c(CNS(=O)(=O)c3ccc(C(C)(C)C)cc3)nc3cccnc32)c1,inactive: -23.2%
22,COc1ccc(-c2nc(CNC(=O)Nc3ccccc3)c(C)o2)cc1,inactive: -11%
23,COc1ccccc1N1CCN(C(=O)c2cc(S(=O)(=O)N3CCC(C)CC3)cn2C)CC1,inactive: -19.1%
24,O=C(Nc1nnc(S(=O)(=O)Nc2ccccc2)s1)C1CCCCC1,inactive: -22.4%
25,NC(=O)CCCCC1CCSS1 (configuration not stated),inactive: -1.86%

row,SMILES,"activity change, positive = activation"
1,CCCSc1nnc2[nH]c(=O)cc(C)n12,inactive: -15.8%
2,CCOC(=O)Cn1c(=O)n(CC2CCCO2)c2nc(-c3ccc(C(C)C)cc3)nc(C(N)=O)c21 (configuration not stated),inactive: -7.51%
3,Cc1ccccc1N(C)S(=O)(=O)c1nnc(NC(=O)C(C)C)s1,inactive: -20.5%
4,COc1ccccc1N1CCN(CCCCNC(=O)c2ccc(-c3ccc(C(C)=O)cc3)cc2)CC1,inactive: -12.6%
5,CCOC(=O)c1ccc(N2C(=O)c3n[nH]c(C)c3C2c2ccc(OCC)cc2)cc1 (configuration not stated),inactive: -42.6%
6,COc1ccc(NC(=O)Cn2c(=O)n(CCCC(=O)NCCc3ccc(C)cc3)c(=O)c3ccccc32)cc1Cl,inactive: -3.24%
7,COc1ccc(N2CCN(c3ncnc4onc(-c5ccc(F)cc5)c34)CC2)cc1,inactive: -23.2%
8,Cc1ccc(CCNC(=O)c2ccc3c(c2)N(Cc2ccccc2)C(=O)c2ccccc2S3=O)cc1 (configuration not stated),inactive: -3.95%
9,Cc1cccc(NC(=O)c2ccc(F)c(S(=O)(=O)N3CCC4(CC3)OCCO4)c2)c1,inactive: -9.37%
10,COc1cc(OC)c(NC(=O)N2CCc3cc(OC)c(OC)cc3C2CC(=O)O)cc1Cl (configuration not stated),inactive: -5.17%
11,CC(C)Cn1c(=O)c2ccccc2n2c(CCC(=O)N3CCN(c4ccccc4)CC3)nnc12,inactive: -10.9%
12,CC(C)c1ccc(C2c3c(-c4ccccc4O)n[nH]c3C(=O)N2Cc2ccncc2)cc1 (configuration not stated),inactive: -54.3%
13,CCCCOC(=O)CSc1nnc(-c2ccc(C)cc2)o1,inactive: -80.8%
14,Cc1ccc2c(c1)Cc1c(nc(-c3ccc(Cl)cc3)nc1SCC(=O)N1CCCCC1)O2,inactive: 3.52%
15,Cc1ccc2onc(CNC(=O)Nc3cc(F)ccc3F)c2c1,inactive: -9.89%
16,Cc1ncc(-c2ccnc(Nc3ccc(S(C)(=O)=O)cc3)n2)n1C(C)C,inactive: -34.3%
17,Cc1ccc(Cl)cc1NC(c1ccc(F)cc1)c1nnc(-c2ccccc2)o1 (configuration not stated),inactive: -34.2%
18,Cc1ccc(NC(=O)C(CC(C)C)NS(=O)(=O)c2ccc3c(c2)oc(=O)n3C)c(C)c1 (configuration not stated),inactive: -10.9%
19,NS(=O)(=O)c1cc2c(cc1C(F)(F)F)NCNS2(=O)=O,inactive: -20.5%
20,CC(C)NC[C@@H](O)COc1ccc(CC(N)=O)cc1,inactive: -2.21%
21,COc1ccc(Nc2cc(C)nc3c(C)c(C)ccc23)cc1,inactive: -11.1%
22,CCc1ccc(C2CC(=O)c3c([nH]c(C(=O)OCCOc4ccccc4)c3C)C2)cc1 (configuration not stated),inactive: -40%
23,Nc1nc(Cl)nc2c1ncn2[C@@H]1O[C@H](CO)[C@@H](O)[C@H]1F,inactive: -27.5%
24,CC(=O)N1CCc2c(sc3c2c(=O)n(CCc2ccccc2)c(=O)n3CC(=O)Nc2ccc(C)c(F)c2)C1,inactive: -27.2%
25,COc1cccc2c1Oc1ncccc1N(c1ccc(C(=O)NCc3ccccc3Cl)s1)C2,inactive: -23.8%

row,SMILES,"activity change, positive = activation"
1,COc1ccc(NC(=O)Cn2c(=O)n(-c3cccc(C(F)(F)F)c3)c(=O)c3sccc32)cc1,inactive: -32.9%
2,Cc1[nH]c2ccccc2c1C1(O)C(=O)N(Cc2ccccc2Cl)c2ccccc21 (configuration not stated),inactive: -19.8%
3,CCC1CN(C(=O)Nc2ccc(Br)cc2F)c2ccccc2S1 (configuration not stated),inactive: -0.58%
4,O=C(NCC(c1ccc(Cl)cc1)N1CCCCC1)c1ccccc1F (configuration not stated),inactive: -4.27%
5,CCOc1ccc(OCC)c(NC(=O)CCc2nc3cccnc3n2-c2ccccc2)c1,inactive: -9.05%
6,COc1ccccc1N1CCN(C(=O)CSc2n[nH]c(-c3ccccc3Cl)n2)CC1,inactive: -18.3%
7,COC(=O)C(NC(=O)CCc1c(C)nc2c(c(C)nn2-c2ccccc2)c1C)C(C)C (configuration not stated),inactive: -6.53%
8,Cc1ccccc1NC(=O)[C@H](CSCc1ccccc1)N1Cc2ccccc2C1=O,inactive: -12.1%
9,COc1cc(OC)cc(C(=O)Nc2ccc3nc(Nc4cccc(C(F)(F)F)c4)cc(C)c3c2)c1,inactive: -45.6%
10,C#CCn1c(C2CC(=O)N(c3ccc(OCC)cc3)C2)nc2ccccc21 (configuration not stated),inactive: 5.59%
11,CCN(CC)C(=O)C1CCN(c2nnc(C)c3c(C)n(-c4ccc(Cl)cc4)nc23)CC1,inactive: -7.14%
12,O=C(NCc1ccc(F)cc1)c1cnc(N2CCCCC2)c2ccccc12,inactive: -18.2%
13,O=S1(=O)c2ccccc2N(Cc2cccc(F)c2)c2ccccc21,inactive: -39.8%
14,COc1ccc(NC(=O)c2ccco2)cc1NC(=O)c1cc(Cl)ccc1OC,inactive: -27.1%
15,CCCN(CCC)C(=O)Cn1c(=O)n(-c2cccc(C)c2)c(=O)c2c1c1cc(OC)ccc1n2C,inactive: -24.7%
16,CSc1ccc(-c2nnn(CC(=O)Nc3sc4c(c3C#N)CCC(C(C)(C)C)C4)n2)cc1 (configuration not stated),inactive: -4.89%
17,CCCCOc1ccc(C(C)NC(=O)CN2C(=O)CSc3ccc(S(=O)(=O)N4CCOCC4)cc32)cc1 (configuration not stated),inactive: -24.8%
18,CCCCN=C(N)N=C(N)N,inactive: 1.88%
19,COc1cccc(-c2cc(C(F)(F)F)nc(NCCc3ccc(OC)c(OC)c3)n2)c1,inactive: -34.8%
20,Cc1c(C(=O)OC2CCCCC2)[nH]c2c1C(=O)CC(c1ccc(F)cc1)C2 (configuration not stated),inactive: -20.6%
21,COc1ccc(-c2[nH]nc3nc(-c4cc(Br)ccc4OC)cc(C(=O)O)c23)cc1,inactive: -8.99%
22,O=C(CN1CCCN(Cc2cccc(Cl)c2)S1(=O)=O)Nc1ccc2c(c1)OCCO2,inactive: -14.1%
